The source of these data is US20210221875A1 (Chugai, published 2021).

The target of test [1] is T1, Human aggrecan G1-IGD-G2 domain with Flag-tag on its C-terminus (human, UniProt P16112 fragment).
T1 construct: used unlabelled as Biacore analyte; also called human aggrecan G1-IGD-G2-Flag; human Aggrecan G1G2 flag
The test can be described thus: ELISA, biotin-labeled antigen on streptavidin plate, A450 of antigen well / non-coated well.

Test [2] deals with T2, biotin-rabbit aggrecan G1-IGD-G2-3xFlag (rabbit, UniProt Q28670 fragment, biotin on the N-terminal Avi-tag (BirA co-expression)).
T2 construct: three tandem Flag-tags at the C-terminus and Avi-tag at the N-terminus; also called biotinylated Avi-rabbit aggrecan G1-IGD-G2-3xFLAG; Avi RbG1G2 3FLAG
Described as above.

The target in a further test is T3, Native rabbit aggrecan (rabbit).
T3 construct: crude cartilage extract supernatant; also called native rabbit aggrecan extracted from cartilage
The test can be described thus: ELISA, native rabbit aggrecan coated at 10 nM, A450 of antigen well / non-coated well.

Test [3] addresses T2, biotin-rabbit aggrecan G1-IGD-G2-3xFlag. The test can be described thus: SPR (Biacore T200), 37 C, pH 7.4, antibody captured, Avi RbG1G2 3Flag as analyte, 1:1 model.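 Note: antibodies captured at roughly 200 RU on a CM4 or C1 chip through anti-human IgG Fc or Protein A/G, in sodium phosphate NaCl buffer with Tween 20.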

B1: hA2R3p.038-G1T3dCH1dCallohu (Fc fusion)
chain: QLQLVESGGGLVQAGGSLRLSCAASGRTFRTYAMGWFRQAPGKEREFVSSISGSGGSKIYADSVKGRFTISRDNAKDTVNLQMNSLKPEDTAVYYCAVARGYYGTMASDPGLYDYWGQGTQVTVSSEPKTPKPQAAA[left out - human IgG1 Fc with C220S Q419E (EU numbers)]
notes: anti-aggrecan VHH with Fc region
For B1, the S/N ratio in test [1] was 29.9; in test [2], 4.5.

B2: hA2R1p.004-G1T3dCH1dCallohu (Fc fusion)
chain: QLQLVESGGGSGQPGGSLKLSCAASGFDLDYFAVGWFRQAPGKEREGVSCISVSGANISYADSVKGRFTIFRDSAKRTVDLSLDALKPEDTAVYYCATTWGIHWCPLSASEYRRWGRGTQVTVSLEPKTPKPQAAA[left out - human IgG1 Fc with C220S Q419E (EU numbers)]
notes: anti-aggrecan VHH fused with a heavy chain constant region (Fc region)
With B2, the S/N ratio in test [1] was 42.7; in test [2] it was 52.5.

B3: oA2R1p.014-G1T3dCH1dCallohu (Fc fusion)
chain: QLQLVESGGGSGQPGGSLRLSCAASGFDLDYYAVGWFRQAPGKEREGIACTSVSGANTTYVDTVKGRFTISRDNAKRTVDLSLDSLKPEDTAVYYCATTWGIHWCPLSASEYRRWGRGTQVTVSLEPKTPKPQAAA[left out - human IgG1 Fc with C220S Q419E (EU numbers)]
notes: as for B1
For B3, the S/N ratio in test [1] amounted to 47.6; in test [2], 52.9.

B4: oA2R2#027un-G1T3dCH1dC (Fc fusion)
chain: QVQLVESGGGSGQPGGSLRLSCAASGFDLDYYAVGWFRQAPGKEREAVSCISVSGANISYVDSVKGRFTISRDNAKRTVDLSLDSLKPEDTAVYYCATTWGIHWCPLNPSDYRRWGRGTQVTVSS[left out - human IgG1 Fc with C220S Q419E (EU numbers)]
notes: as for B1
Turning to B4, the S/N ratio with Native rabbit aggrecan came out at 2.39; in test [1], 33; in test [2], 37.8.

B5: oA2R2#041un-G1T3dCH1dC (Fc fusion)
chain: QVQLVESGGGSGQSGGSLTLSCAASGFDLDYYAVGWFRQAPGKEREGVACTSVSGANISYVDSVKGRFTIYRDNVKKTVELSLDSLKPEDTAVYYCATTWGIHWCPLIASEYRRWGRGTQVTVSS[left out - human IgG1 Fc with C220S Q419E (EU numbers)]
notes: as for B1
Consider B5, for which the S/N ratio in the test with Native rabbit aggrecan worked out at 5.17. In addition, the S/N ratio in test [1] is 29.9. For the same molecule, the S/N ratio in test [2] turned out to be 34.3. In test [3], this molecule had a Kd of 763 nM, a koff of 0.0187 s⁻¹ and a kon of 24500 M⁻¹ s⁻¹.
